The text below walks through data of PubChem BioAssay AID488969 (Vanderbilt High Throughput Screening Facility, 2010).

Over roughly 110,000 compounds, “z-score” has its median near -0.1; the highest 2% begin near 2. The list shows a part of the results. Calls of active or inactive are those of the source.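 The calls were made as follows: active = z-score in the third read window above 3 or below -3; inactive = the rest.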 Residues, ends and D or L forms follow the SMILES beside them. *: point of attachment. Boc = CC(C)(C)OC(=O)*

The assay addresses Metabotropic glutamate receptor 8 (Rattus norvegicus) (UniProt P70579). The experiment in a line: rat mGluR8 modulators via GIRK flux, primary screen, cell-based, thallium flux, HTS (AID 488969). Particulars: HEK293 rat mGluR8, GIRK (G protein-gated inwardly rectifying potassium channel) thallium flux, FluoZin2; at 10 µM; stronger effect = higher value; submaximal glutamate (EC20) added with thallium.
Chain of UniProt P70579 (P70579 whole entry, looked up): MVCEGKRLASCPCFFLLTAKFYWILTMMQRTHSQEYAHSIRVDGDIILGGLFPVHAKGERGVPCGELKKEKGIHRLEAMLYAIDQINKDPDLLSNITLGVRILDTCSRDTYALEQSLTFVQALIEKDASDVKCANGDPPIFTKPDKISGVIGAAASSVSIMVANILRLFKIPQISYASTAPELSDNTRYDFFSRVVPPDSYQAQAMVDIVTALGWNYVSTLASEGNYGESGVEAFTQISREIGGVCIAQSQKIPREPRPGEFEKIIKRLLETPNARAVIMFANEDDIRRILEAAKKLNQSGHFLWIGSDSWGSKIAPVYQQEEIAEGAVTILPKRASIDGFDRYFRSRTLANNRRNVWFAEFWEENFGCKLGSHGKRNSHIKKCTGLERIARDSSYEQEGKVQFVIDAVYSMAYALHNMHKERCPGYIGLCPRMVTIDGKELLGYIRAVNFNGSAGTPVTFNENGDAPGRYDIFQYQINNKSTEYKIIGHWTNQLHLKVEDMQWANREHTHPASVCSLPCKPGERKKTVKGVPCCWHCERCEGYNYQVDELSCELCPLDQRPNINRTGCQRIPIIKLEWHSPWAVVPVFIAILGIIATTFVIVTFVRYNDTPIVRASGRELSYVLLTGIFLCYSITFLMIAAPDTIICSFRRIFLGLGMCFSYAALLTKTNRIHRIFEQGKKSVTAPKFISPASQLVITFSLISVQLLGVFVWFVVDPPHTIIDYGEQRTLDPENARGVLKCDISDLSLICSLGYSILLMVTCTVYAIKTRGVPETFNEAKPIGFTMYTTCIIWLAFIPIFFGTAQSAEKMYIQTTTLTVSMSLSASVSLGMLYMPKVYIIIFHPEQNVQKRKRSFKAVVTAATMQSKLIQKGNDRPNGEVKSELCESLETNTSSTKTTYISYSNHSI
Consider `Cc1ccc(N2C(=O)NC(C(F)(F)F)(C(F)(F)F)C3=C2CC(C)(C)CC3=O)cc1`, for which the z-score is -0.225.

For the compound `CC(C)(C)N/N=C/c1cc(Cl)cc([N+](=O)[O-])c1O`, the z-score is 0.0144.

Compound `N#CCC(=O)NCC1(c2ccccc2)CCCC1` registered a z-score of -0.301.

`COc1ccc(CN2C(=O)c3cccnc3C2Nc2ccc(OC)c(Cl)c2)cc1` (stereo not drawn) had a z-score of -0.22.

The compound `CCCCN(C)CCC(=O)Nc1ccc(Cl)cc1` yielded a z-score of 0.137.

`Cc1ccc(OCC(=O)Nc2cccc(-c3nnc(-c4ccccc4)o3)c2)c(C)c1` returned a z-score of -0.0668.

The compound `O=C(CCC(=O)Nc1nnc(C2CCCCC2)s1)NCc1cccs1` showed a z-score of -0.0529.

In the case of `Cc1ccc(NCC(=O)N/N=C/c2ccc(OC(=O)c3ccco3)cc2)cc1`, the z-score worked out at 0.0308.

With `Cc1nc(SC(C(=O)c2ccccc2)c2ccccc2)nc2ccccc12` (stereo not drawn), the z-score came out at 1.63.

As to `O=C(CSc1nc2cc(Cl)ccc2s1)N1CCN(C(=O)c2ccco2)CC1`, the z-score was -0.726.

`CC(C)(C)OC(=O)N1CCCC1C(=O)NC(Cc1ccccc1)C(=O)O` (stereo not drawn) (Boc-Pro-Phe-OH; configuration not given here) gave a z-score of -0.151.

The compound `CCOC(=O)CSc1ncc(-c2ccccc2)nn1` yielded a z-score of -2.57.

For `O=C(N/N=C\c1ccc(Cl)s1)c1cccs1`, the z-score was active: 8.64.

As to `O=C(COC(=O)/C=C/c1ccc(Cl)cc1)Nc1ccc2c(c1)OCCO2`, the z-score worked out at 0.0864.

The compound `Cc1ccn2cc(CNS(=O)(=O)c3ccc4c(c3)OCCO4)nc2c1` returned a z-score of -0.0245.

On to `CN(C)c1ccc(C(=O)c2ccc(O)cc2O)cc1`, for which the z-score was -0.399.

For the compound `c1ccc(CCn2c(C3CC3)nc3ccccc32)cc1`, the z-score was -0.659.

Compound `CCN(Cc1ccccc1)C(c1cccc(C#N)c1)c1nnnn1C(C)(C)C` (stereo not drawn) came in with a z-score of 0.275.

Consider `CCn1c(SCC(=O)N2CCOCC2)nc(O)cc1=O`, for which the z-score is -0.0054.

Turning to `CCCC(C(=O)NCC1CCCO1)N(Cc1ccco1)C(=O)CNS(=O)(=O)c1ccc(F)cc1` (stereo not drawn), the z-score was -0.809.

Take `O=C(CSc1nc2ccccc2s1)N1N=C(c2cccs2)CC1c1ccc(F)cc1` (stereo not drawn): the z-score was -0.0436.

`CCOC(=O)c1ccc(S(=O)(=O)N2CCC(C(=O)OCC)CC2)cc1` had a z-score of 0.34.

`O=C(O)c1nc2ccccc2nc1C(=O)O` came in with a z-score of -0.495.

In turn, `CS(=O)(=O)N(CC(=O)N1CCCCCC1)c1ccc2c(c1)OCCO2` registered a z-score of 0.0779.

The compound `COn1c(-c2ccc(Cl)cc2)nc2ccc(Cl)cc21` came in with a z-score of -0.214.

`CCCN(CC(=O)Nc1ccccc1C)C(=O)/C=C/c1cccs1` yielded a z-score of -0.124.

For `Cc1ccc(C(=O)NN(C)c2nc3ccccc3nc2C(F)(F)F)cc1`, the z-score is 0.198.

`O=C(O)c1ccccc1SCc1ccc2c(c1)OCO2` yielded a z-score of -0.169.

For `O=S(=O)(c1cccc(Cl)c1Cl)N1CCCCC1`, the z-score was -0.119.

The compound `COc1cccc(NC(=O)Nc2ccc3nsnc3c2)c1` had a z-score of -0.514.

`S=C(Nc1ccccc1)Nc1nc2ccccc2n1CCOc1ccc(Cl)cc1`: the z-score turned out to be 1.72.

Turning to `N=C1C(c2ccc(Br)cc2)=C(O)C2CCc3ccccc3N12` (stereo not drawn), the z-score was -1.

`CC(=O)N1C(Nc2ccc(Cl)cc2)CCN1c1ccccc1` (stereo not drawn): the z-score is -0.233.

`CCn1nnc(NC(=O)COc2cc(C)ccc2C(C)C)n1`: the z-score is -0.0287.

`C=CCn1c(NCc2c[nH]c3ccccc23)nc2ccccc21` displayed a z-score of -1.62.

Take `Cc1ccc(C2CC(c3ccc(Cl)cc3)=NNC2=O)cc1` (stereo not drawn): the z-score was -0.0691.

With `CCOC(=O)CC1=Nc2ccccc2NC(=O)C1`, the z-score was 0.695.

`CCCn1nc2cc(C(=O)NCc3ccccc3)ccc2c1OCC` gave a z-score of -0.0713.

As to `CN(C)C(C)(C)C#CCCCCC#CC(C)(C)N(C)C`, the z-score is -0.195.

`Cc1cc(C)n(-c2ccc(C)c(Cl)c2)n1` gave a z-score of -0.078.

Regarding `CCN(/N=C/C=C/c1ccccc1)c1cc(=O)n(C)c(=O)[nH]1`, the z-score was -0.682.

Regarding `CC(=O)c1ccc(-n2nnnc2SCC(=O)Nc2sc(C)c(C)c2C#N)cc1`, the z-score is -0.133.

For the compound `CCCS(=O)(=O)c1c(S(=O)(=O)CCC)c2c(N)cccn2c1C(=O)c1ccccc1`, the z-score is 0.09.

For the compound `CC(=O)/C(=N\Nc1cccc(Cl)c1)Sc1cccc2cccnc12`, the z-score worked out at 0.635.

Consider `CC(C)c1nnc(NC(=O)CCC(=O)N2CCN(Cc3ccccc3)CC2)s1`, for which the z-score stood at 0.83.

`Cc1cc(C)cc(NC(=O)CN2CCN(CCN=CC3=C(O)CC(C)(C)CC3=O)CC2)c1` showed a z-score of 0.0426.

`COc1cc(/C=C(/C#N)c2ccc(C)cc2)ccc1Oc1ccc([N+](=O)[O-])cn1` gave a z-score of -0.0458.

Turning to `COc1ccc(CNC(=O)COC(=O)c2ccc(OCc3c(C)noc3C)cc2)cc1OC`, the z-score is -0.353.

In the case of `CN1CCN(c2ccc([N+](=O)[O-])cc2/C=N/NC(=O)c2ccc(F)cc2)CC1`, the z-score is -0.503.

As to `CCOc1cccc(CNc2ccc(O)cc2)c1OCc1ccccc1Cl`, the z-score was -0.208.

`Cc1noc2ncc(C(=O)c3cc(F)ccc3O)cc12` displayed a z-score of 0.257.

As to `CCN1C(=O)c2ccc(C(=O)O)cc2C1=O`, the z-score was -0.183.

For the compound `CNC(=S)Nc1cc(OC)ccc1OC`, the z-score was -0.117.

Compound `Cc1ccccc1OCC(=O)N/N=C1\SCC(=O)N1Cc1ccccc1` came in with a z-score of -0.0816.

`CCN(CC)CCOC(=O)c1ccc(Cl)cc1` displayed a z-score of -0.0542.

As to `O=C(Nc1ccccc1C(=O)NCc1cccnc1)c1ccco1`, the z-score worked out at 0.171.

`CCCc1nc2ccccc2c(=O)n1/N=C/c1c(C)[nH]n(-c2ccc(C)cc2)c1=O` came in with a z-score of 1.38.

In turn, `COC(=O)CC1C(=O)NCCN1C(=S)NC(=O)c1ccccc1[N+](=O)[O-]` (stereo not drawn) returned a z-score of -0.0299.

As for `O=C(CNC(=O)c1ccc(Br)o1)Nc1cccc(-c2cnc3ccccc3n2)c1`, the z-score was -0.0702.

With `O=C(Cn1c(=O)sc2ccccc21)Nc1ccccc1`, the z-score is -0.129.

`COC(=O)C1=C(C)C(c2cccs2)NC(=O)N1C` (stereo not drawn): the z-score amounted to 0.144.

Consider `O=C1CC(c2ccco2)CC(O)=C1C=NCCN1CCNCC1` (stereo not drawn), for which the z-score is -0.022.

Compound `COc1ccccc1/C=C/C=N/N1CCN(c2ccccn2)CC1` yielded a z-score of -0.0475.

In turn, `Cc1ccc2c(c1)NC(=O)C(CC(=O)NCCCN1CCCCC1C)O2` (stereo not drawn) came in with a z-score of 1.73.

Take `CC(=O)N1CCN(c2ccc(NCc3cccs3)cc2)CC1`: the z-score is 0.699.

Take `COC(=O)c1cc(Br)c(=O)n(-c2nccs2)c1`: the z-score was -0.546.

For `CCSc1nc(C)cc(Oc2ccc(=O)n(C)n2)n1`, the z-score is -0.125.

For the compound `CCCc1nnc(NC(=O)Cn2cnc3ccccc3c2=O)s1`, the z-score came to 0.0834.

`COc1ccccc1C(=O)Nc1ccc(S(=O)(=O)N2CCc3ccccc32)cc1` showed a z-score of 0.187.

For `O=C(CN1C(=O)CSc2ccccc21)NC1CCCC1`, the z-score was -0.0638.

As for `O=C(Cn1cnc2c(nnn2Cc2ccccc2F)c1=O)N1CCN(c2ccccc2)CC1`, the z-score was 0.337.

As to `COc1ccc2nc3ccccc3nc2c1NC(=O)c1ccc(Cl)cc1`, the z-score was -0.0793.

`Cc1cccc(NC(=S)N/C(=N/S(=O)(=O)c2ccccc2)c2ccccc2)c1` registered a z-score of 1.97.
